PubChem BioAssay AID1508624 (National Center for Advancing Translational Sciences (NCATS), 2021)
About 120 (0.25%) of roughly 48,000 compounds were called active. Another 4% or so got no clear call; they are omitted. The call rests on the fitted dose curve; in most records, active means well fitted activation curve with a large enough effect; inconclusive means small, poorly fitted or top-dose-only effect, or another doubt; inactive means no such curve, though single readings can be large or run the other way. This is one part of the list.

Experiment: Primary qHTS for Identification of Small Molecule Activators of Huntingtin-Antisense Promoter Activity; further: nearly all actives have a fitted effect of over 55% in size
Conditions: HEK293 HTT-AS promoter firefly luciferase reporter (activity 0% = vehicle and -100% = no light), 24 h; series mostly up to 57.5 µM; activity change, positive = activation: at the top concentration
In short: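 HEK293 Fluc reporter, 2,500 cells/well, 24 h pre-culture; cpds up to 57.5 uM final, 24 h 37 degrees C; Dual-Glo, 10 min RT; normalized vehicle = 0%, zero RLU = -100%.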

Activity change, positive = activation, inactive:
CCn1cc(/C=C(\NC(=O)c2ccc(C)cc2)C(=O)NCCCn2ccnc2)c2ccccc21 -14.3%
CCOc1ccc2nc(N3CCN(C(=O)c4ccco4)CC3)sc2c1 33.1%
Cc1ccc2c(=O)cc(C(=O)NCc3ccccc3)oc2c1 -20.3%
COc1ccc(CNC(=O)C2CCCN(S(=O)(=O)c3ccc4c(ccn4C)c3)C2)c(OC)c1 (stereo not given) -29.2%
COc1ccc(NC(C)=O)cc1NC(=O)C1(c2cccs2)CCOCC1 0%
COc1ccc(C2=NC(C)(C)N(CC(=O)Nc3cc(OC)cc(OC)c3)C2=O)cc1 -1.71%
CN(c1ccc(F)cc1)S(=O)(=O)N1CCCC(C(=O)NCCc2ccccc2)C1 (stereo not given) -13.3%
Cn1c2cc(S(C)=O)sc2c2cnn(Cc3cccc(N)c3)c(=O)c21 (stereo not given) -14.3%
Cc1ccc(-c2cc3nccc(-c4cc([N+](=O)[O-])ccc4O)n3n2)cc1 -70.8%
CCOc1ccc(S(=O)(=O)NCc2nc3cccnc3n2Cc2ccccc2OC)cc1 -20.1%
CCCCNC(=O)CSc1nc2n[nH]c(C)c2c(=N)n1-c1cccc(C)c1 -25.5%
Cc1c(C(=O)OC2CCCCCC2)[nH]c2c1C(=O)CC(c1ccccc1)C2 (stereo not given) -25.3%
Cc1nc2ccc(S(=O)(=O)NC(CC(C)C)C(=O)NCc3ccc(Cl)cc3)cc2s1 (stereo not given) -31.1%
C[C@@H]1O[C@@H](OC[C@H]2O[C@@H](Oc3c(-c4ccc(O)c(O)c4)oc4cc(O)cc(O)c4c3=O)[C@H](O)[C@@H](O)[C@@H]2O)[C@H](O)[C@H](O)[C@H]1O 1.58%
COc1cc(NC(=O)CN2CCCN(S(=O)(=O)c3ccc(F)cc3)CC2)cc(OC)c1 -10.2%
O=C(Nc1ccccc1Br)c1cc(S(=O)(=O)NC2CCCCC2)ccc1F -28.7%
CCOC(=O)c1cc(S(=O)(=O)Nc2c(C)cc(C)cc2C)[nH]n1 -18.7%
CC(=O)NC(C)c1nc2ccccc2n1Cc1ccccc1Cl (stereo not given) -10.7%
CCOC(=O)N1CCN(c2ncc3c(n2)CC(c2ccc(Cl)cc2)CC3=O)CC1 (stereo not given) -3.48%
Cc1ccc(C)c(NC(=O)C2CCCN2S(=O)(=O)c2ccc3c(c2)n(C)c(=O)c(=O)n3C)c1 (stereo not given) 1.37%
COc1ccc(C2C(C(=O)Nc3cccnc3)=C(C)Nc3nc(SCc4ccccc4)nn32)cc1 (stereo not given) -12.7%
CCOCCCNC(=O)c1ccc(Cn2c(=O)c3cccn3c3cccnc32)cc1 -24.8%
COc1cc(-c2noc(-c3ccc(NC4CCCC4)c([N+](=O)[O-])c3)n2)cc(OC)c1OC -6.56%
CCOC(=O)CCCCN(Cc1ccccc1F)S(=O)(=O)c1ccc(F)c(C(=O)Nc2cc(Cl)cc(Cl)c2)c1 -24.1%
CCOc1ccc(NC(=O)Nc2cc3c(cc2N2CCCCC2)n(C)c(=O)n3C)cc1 -37.3%
